The results in this text go back to the supplement of paper PMC5919970.

The subject of this assay is TYKNU. Put plainly: fractional viability relative to vehicle; TYKNU is a high-grade serous ovarian cancer line; higher = less growth inhibition. The settings on record: 72 h. In short, it runs like this: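 TYKNU control cells or lentiCRISPRv2 knockout derivatives were plated at 500 cells per well in duplicate into drug-stamped 384-well plates holding a ~2100-compound library at 2 or 10 μM. Culture was in RPMI 1640 with 10% FBS at 37 °C in 5% CO2, with 72 h of drug treatment. Viability was measured by Cell Titer Glo luminescence, and the averaged duplicate treatment wells were normalised to duplicate control wells at the same plate position.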

Where [1] appears, read: 2uM, genotype: DNM1L knockout (sgDNM1L #1).
[2] abbreviates: 2uM, genotype: sgCTRLA1 (non-targeting control).
Setting [3] is: 10uM, genotype: DNM1L knockout (sgDNM1L #1).
Where [4] appears, read: 10uM, genotype: sgCTRLA1 (non-targeting control).

“And” between values parts separate entries of the source, which are not always exact repeats. Equal entries are not always repeated. Whole data set: some 2,000 compounds, median “fractional viability relative to vehicle” near 0.91, cut for the lowest 2% near 0.045. This is one part of the list.

`COc1cccc2c1c(O)c(C(=O)N(C)c1ccc(C(F)(F)F)cc1)c(=O)n2C` [Tasquinimod] registered a fractional viability under setting [1] of 0.708, a fractional viability under setting [2] of 0.952, a fractional viability under setting [3] of 0.713 and a fractional viability under setting [4] of 0.752.
`CCCc1cc(C(N)=S)ccn1` [Protionamide] yielded a fractional viability under setting [1] of 1.03, a fractional viability under setting [2] of 1.11, a fractional viability under setting [3] of 0.93 and a fractional viability under setting [4] of 1.16.
Take `C#Cc1cccc(Nc2ncnc3cc(OC)c(OCCCCCCC(=O)NO)cc23)c1`: the fractional viability by setting is: under setting [1], 0.185; under setting [2], 0.281; under setting [3], 0.0985; under setting [4], 0.0936.
As for `CC(=O)S[C@@H]1CC2=CC(=O)CC[C@]2(C)[C@H]2CC[C@@]3(C)[C@@H](CC[C@@]34CCC(=O)O4)[C@H]12` [Spironolactone], the fractional viability is 1.03 under setting [1], 1.08 under setting [2], 0.835 under setting [3] and 1.04 under setting [4].
On to `O=C(O)[C@]1(Cc2cccc(Nc3nccs3)n2)CC[C@@H](Oc2cccc(Cl)c2F)CC1`, for which the fractional viability worked out at 0.521 under setting [1], 0.712 under setting [2], 0.439 under setting [3] and 0.417 under setting [4].
For `COc1cc2c(Nc3ccc(NC(=O)c4ccccc4)cc3)ncnc2cc1OCCCN1CCOCC1`, the fractional viability was 0.862 under setting [1], 0.959 under setting [2], 0.266 under setting [3] and 0.22 under setting [4].
On to `CC(=O)Nc1ccc(C(=O)Nc2ccccc2N)cc1` [CI994 (Tacedinaline)], for which the fractional viability was 0.966 under setting [1], 0.965 under setting [2], 0.456 under setting [3] and 0.675 under setting [4].
Consider `C=C1CC[C@H](O)C/C1=C/C=C1\CCC[C@]2(C)[C@@H]([C@H](C)CCCC(C)C)CC[C@@H]12` [Vitamin D3], for which the fractional viability amounted to 0.936 under setting [1], 1.13 under setting [2], 0.276 under setting [3] and 0.497 under setting [4].
`CC(C)(O)[C@H]1CC[C@@](C)([C@H]2[C@@H](O)C[C@@]3(C)[C@@H]4C[C@H](O[C@@H]5O[C@H](CO)[C@@H](O)[C@H](O)[C@H]5O)[C@H]5C(C)(C)[C@@H](O[C@@H]6OC[C@@H](O)[C@H](O)[C@H]6O)CC[C@@]56C[C@@]46CC[C@]23C)O1` [Astragaloside A]: the fractional viability runs as follows: under setting [1], 0.893; under setting [2], 1.13; under setting [3], 0.755; under setting [4], 0.989.
Take `COC(=O)Nc1nc2cc(C(=O)c3cccs3)ccc2[nH]1` [Nocodazole]: the fractional viability by setting is: under setting [1], 0.168; under setting [2], 0.139; under setting [3], 0.203; under setting [4], 0.177.
Regarding `COc1cc(Br)c(Nc2nc(-c3c(C)nc4ncccn34)cs2)c(Br)c1`, the fractional viability under setting [1] was 0.132 and 0.166; the fractional viability under setting [2] was 0.149 and 0.143; the fractional viability under setting [3] is 0.152 and 0.167; the fractional viability under setting [4] was 0.116 and 0.103.
Take `CC(C)(C)c1cnc(CSc2cnc(NC(=O)C3CCNCC3)s2)o1`: the fractional viability came to 0.272 under setting [1], 0.294 under setting [2], 0.361 under setting [3] and 0.285 under setting [4].
As to `CCN[C@H]1CN(CCCOC)S(=O)(=O)c2sc(S(N)(=O)=O)cc21` [Brinzolamide], the fractional viability amounted to 1.02 under setting [1], 1.14 under setting [2], 0.8 under setting [3] and 1.04 under setting [4].
For `CC(C)c1c(C(=O)Nc2ccccc2)c(-c2ccccc2)c(-c2ccc(F)cc2)n1CC[C@@H](O)C[C@@H](O)CC(=O)O` [Atorvastatin Calcium], the fractional viability was 0.591 under setting [1], 0.614 under setting [2], 0.286 under setting [3] and 0.313 under setting [4].
In turn, `OC(Cn1cncn1)(Cn1cncn1)c1ccc(F)cc1F` [Fluconazole] gave a fractional viability under setting [1] of 1, a fractional viability under setting [2] of 1.19, a fractional viability under setting [3] of 0.894 and a fractional viability under setting [4] of 0.994.
